In the supplement of paper PMC3334620:
Whole data set: some 33,000 sequences, median “E-score (-0.5 to 0.5)” near -0.041, cut for the highest 2% near 0.37. This is one part of the list.

The sequences below were run against T1, Ecm22 (UniProt Q05958) (assay: PBM E-score (8-mer binding enrichment) (E-score (-0.5 to 0.5)); higher = stronger / more preferred TF binding; most listed sequences are background and not binding sites). Details: protein concentration: 200 nM; construct: GST-full length.
T1 sequence: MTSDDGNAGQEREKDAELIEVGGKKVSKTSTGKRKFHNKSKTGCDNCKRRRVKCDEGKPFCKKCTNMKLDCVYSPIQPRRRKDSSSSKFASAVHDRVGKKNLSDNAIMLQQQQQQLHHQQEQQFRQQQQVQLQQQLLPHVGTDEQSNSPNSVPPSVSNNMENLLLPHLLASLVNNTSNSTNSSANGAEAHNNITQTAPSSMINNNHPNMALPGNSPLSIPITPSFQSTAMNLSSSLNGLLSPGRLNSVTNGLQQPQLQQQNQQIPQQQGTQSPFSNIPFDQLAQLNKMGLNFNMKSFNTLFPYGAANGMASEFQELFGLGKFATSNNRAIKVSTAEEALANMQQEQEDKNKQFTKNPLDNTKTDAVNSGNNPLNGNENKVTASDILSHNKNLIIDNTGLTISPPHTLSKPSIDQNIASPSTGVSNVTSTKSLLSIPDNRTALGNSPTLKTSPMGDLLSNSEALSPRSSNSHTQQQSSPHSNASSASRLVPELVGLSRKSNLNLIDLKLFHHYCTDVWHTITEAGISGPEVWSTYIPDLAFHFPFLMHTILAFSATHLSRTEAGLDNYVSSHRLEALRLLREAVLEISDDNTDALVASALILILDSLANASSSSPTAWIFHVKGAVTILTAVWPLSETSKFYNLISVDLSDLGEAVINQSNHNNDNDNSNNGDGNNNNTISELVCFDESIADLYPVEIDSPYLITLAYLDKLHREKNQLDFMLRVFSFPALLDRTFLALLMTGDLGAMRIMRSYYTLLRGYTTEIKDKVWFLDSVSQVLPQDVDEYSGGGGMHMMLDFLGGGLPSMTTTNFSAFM
Procedure, shortened: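 Each ungapped eight-base word and its reverse complement, pooled, received an E-score from the Universal PBM Analysis Suite. Underlying scans, normalised with masliner, recorded fluorescent anti-GST bound to GST-tagged yeast transcription factors. These were applied at about 100-200 nM to universal all-10-mer Agilent arrays double-stranded by primer extension.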

Sequence	PBM E-score
AGATGTTA	-0.043
GGACATCA	0.00287
AAAAAGTT	-0.226
AGATATGA	-0.0436
AAACGCCT	-0.0201
CAGATACG	0.346
CCACGTCA	-0.297
GATCGTGA	-0.0461
CATGATCC	-0.0897
GCGCCGAA	-0.017
ACCCAGCC	-0.191
TAGTTAAA	0.0471
GGCGGTCA	0.111
AAAGCCGA	-0.0239
CCTACCTA	-0.133
CAGAGCCC	-0.0894
CCGTGGGA	-0.135
CGAGCGAA	0.26
CGTCGTAG	0.406
GTCGAGAC	0.156
TTGCCCAA	-0.0518
AGTCCGTG	-0.0515
CCTTGACC	-0.282
GGCGAGAA	0.0538

Sequence	PBM E-score
CTGAACTA	-0.092
GAGGGTCC	-0.0951
AACTCATG	-0.0529
AATTGCAG	-0.0638
CGTATGTA	0.351
TACTCACA	-0.0537
ACGGCACG	0.222
CACATAAA	0.169
ATTGATAC	0.204
GGTGTGAC	-0.177
CAACACTC	-0.00527
TAGTCAGA	-0.276
CGCCCATA	-0.00763
GCCGTGTA	0.229
ACTGTTGC	-0.0275
GCCGACCC	-0.219
GAGTCAAA	-0.243
AGCTAAGA	-0.067
ACGTCATC	0.0129
CATTCTCG	0.186
CCATGGGC	-0.347
GCTATGCA	-0.168
ACATGCGG	0.0685
ATCGGAGG	-0.158

Sequence	PBM E-score
AGTGGAGG	-0.0301
ACGCCGTG	-0.146
ACTGTAAT	-0.0882
GTACAGGA	0.192
ATTCTCAC	-0.0663
CTAGAGCA	-0.097
ATCTACTC	-0.13
AGAGACGC	0.0019
CGGTTGAA	-0.0459
AGCTACTA	-0.0215
GACTTATC	-0.164
CACTTGAC	-0.199
AAGAGCCG	-0.132
GGGCACGA	-0.0319
CGGTCCAC	-0.0214
GCCCCGGC	-0.158
GAGGAATA	0.0494
ATTAGGCC	-0.252
ATCCCGAG	0.114
CATGTTAA	0.08
GCCGCGAC	-0.00019
GGGCGACA	-0.188
AATCATCG	0.157
TAGAATGA	-0.323

Sequence	PBM E-score
ACCAGTCC	-0.332
GTACTACA	0.194
ACTTTTTG	-0.147
CGAGGGCC	0.216
CAATAATC	-0.0306
AAAGGAGG	-0.207
ATGATCAT	-0.163
ACGAACGT	0.307
CATAGACG	-0.0708
AGGCCGGA	-0.0726
GATACACC	0.0562
CGGAAACA	0.00854
GAAGTCTC	0.00193
TAGACCTA	-0.0222
CGTCAAGA	-0.0752
GCGCGAGA	0.15
CTTCTTTC	-0.162
CTCGGATA	0.346
GCTTAAGC	-0.0773
TGAGGTAA	-0.264
ATGGGGTC	-0.213
CGTAAACC	0.366
